Test results taken from the supplement of paper PMC3334620.
The full ranking holds about 33,000 sequences; the median of “E-score (-0.5 to 0.5)” is about -0.035, and the highest 2% start at about 0.35. The list shows a part of the results.

The sequences below were run against T1, Pdr3 (UniProt P33200) (assay: PBM E-score (8-mer binding enrichment) (E-score (-0.5 to 0.5)); higher = stronger / more preferred TF binding; most listed sequences are background and not binding sites). Details: protein concentration: 200 nM; construct: GST-full length.
T1 sequence: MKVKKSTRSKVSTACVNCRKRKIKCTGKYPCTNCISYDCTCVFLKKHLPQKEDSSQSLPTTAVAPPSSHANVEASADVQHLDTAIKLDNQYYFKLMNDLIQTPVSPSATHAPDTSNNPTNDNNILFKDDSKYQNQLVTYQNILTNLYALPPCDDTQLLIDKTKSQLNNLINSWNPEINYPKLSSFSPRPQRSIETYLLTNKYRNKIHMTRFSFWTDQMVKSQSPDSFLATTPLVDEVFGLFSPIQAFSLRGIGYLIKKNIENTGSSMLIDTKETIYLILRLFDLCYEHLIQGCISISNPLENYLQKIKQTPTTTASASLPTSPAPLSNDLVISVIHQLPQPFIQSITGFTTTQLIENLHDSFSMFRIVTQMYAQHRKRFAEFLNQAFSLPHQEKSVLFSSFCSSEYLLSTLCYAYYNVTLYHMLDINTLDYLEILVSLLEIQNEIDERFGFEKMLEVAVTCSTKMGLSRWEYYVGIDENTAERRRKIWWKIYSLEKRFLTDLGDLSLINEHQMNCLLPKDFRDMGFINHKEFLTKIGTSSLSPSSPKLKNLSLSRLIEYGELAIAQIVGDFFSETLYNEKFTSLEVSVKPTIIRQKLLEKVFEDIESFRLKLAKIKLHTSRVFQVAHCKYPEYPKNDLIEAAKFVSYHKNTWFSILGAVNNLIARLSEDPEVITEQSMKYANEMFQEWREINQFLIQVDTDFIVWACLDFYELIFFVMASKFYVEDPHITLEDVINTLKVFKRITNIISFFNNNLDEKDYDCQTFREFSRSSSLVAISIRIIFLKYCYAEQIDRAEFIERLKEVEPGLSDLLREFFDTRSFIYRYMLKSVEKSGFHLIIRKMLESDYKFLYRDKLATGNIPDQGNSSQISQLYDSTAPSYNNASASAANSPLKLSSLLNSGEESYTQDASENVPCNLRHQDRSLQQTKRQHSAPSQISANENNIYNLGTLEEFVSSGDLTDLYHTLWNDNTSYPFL
Outline: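 Bound GST-tagged yeast transcription factors, applied at about 100-200 nM to double-stranded universal all-10-mer Agilent arrays, were detected with fluorescent anti-GST. Scans were normalised with masliner. A modified Wilcoxon-Mann-Whitney statistic, the E-score, was assigned to each ungapped eight-base word pooled with its reverse complement by the Universal PBM Analysis Suite.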

Compared with ATGGGGTC, TGAGGTAA is lower in “PBM E-score” value: 0.0921 for the first, -0.165 for the second.

Compared with CGTAAACC, CGTCAAGA is higher in “PBM E-score” value: -0.16 for the first, -0.0703 for the second.

Compared with TAGACCTA, CTTCTTTC is higher in “PBM E-score” value: -0.273 for the first, -0.0696 for the second.

Going from GCGCGAGA to GCTTAAGC, the “PBM E-score” value falls from 0.0398 to -0.0198.

First: CTCGGATA
Second: GATACACC
The “PBM E-score” value of the first is higher: 0.273 for the first, 0.154 for the second.

Going from AGGCCGGA to ACGAACGT, the “PBM E-score” value falls from 0.256 to 0.00537.

Compared with CATAGACG, GAAGTCTC is lower in “PBM E-score” value: 0.0236 for the first, -0.128 for the second.

Compared with CGGAAACA, CGAGGGCC is lower in “PBM E-score” value: 0.451 for the first, 0.0701 for the second.

First: AAAGGAGG
Second: CAATAATC
The “PBM E-score” value of the first is lower: -0.134 for the first, 0.114 for the second.

Going from ATGATCAT to CCCATTTA, the “PBM E-score” value rises from -0.0826 to -0.053.

Compared with CACAAGCC, CGACGATC is higher in “PBM E-score” value: 0.0747 for the first, 0.198 for the second.

Compared with AACAGTGT, CGCGACAA is higher in “PBM E-score” value: -0.213 for the first, 0.234 for the second.

First: AGCCACAT
Second: TAATATTA
The “PBM E-score” value of the first is lower: -0.236 for the first, 0.293 for the second.

Going from CCTCTCGC to ATCGCAAT, the “PBM E-score” value rises from -0.145 to 0.00216.

Going from CCACATAA to CGGCGCAA, the “PBM E-score” value rises from 0.0311 to 0.185.

Going from ACGTCACT to CTCACTTC, the “PBM E-score” value falls from -0.011 to -0.105.

Going from GATTTGGC to AGCATAGA, the “PBM E-score” value falls from 0.0223 to -0.12.

Compared with ATGCCCGA, AGAGACGC is higher in “PBM E-score” value: -0.0424 for the first, 0.114 for the second.

First: CGGTTGAA
Second: GTACAGGA
The “PBM E-score” value of the first is higher: 0.172 for the first, -0.0884 for the second.

First: ACGCCGTG
Second: ACTGTAAT
The “PBM E-score” value of the first is higher: 0.113 for the first, -0.142 for the second.

Compared with ATTCTCAC, CTAGAGCA is lower in “PBM E-score” value: 0.0366 for the first, -0.165 for the second.

Going from ATCTACTC to GCTATGCA, the “PBM E-score” value falls from 0.121 to -0.277.

Compared with ATCGGAGG, ACATGCGG is higher in “PBM E-score” value: 0.0523 for the first, 0.156 for the second.

Compared with AGTGGAGG, TAGAATGA is lower in “PBM E-score” value: -0.0928 for the first, -0.19 for the second.

First: ACCAGTCC
Second: ACTTTTTG
The “PBM E-score” value of the first is lower: -0.0869 for the first, -0.0594 for the second.

First: GTACTACA
Second: ATCCCGAG
The “PBM E-score” value of the first is lower: -0.109 for the first, 0.395 for the second.

First: ATTAGGCC
Second: GAGGAATA
The “PBM E-score” value of the first is lower: -0.0713 for the first, 0.0358 for the second.

Going from CATGTTAA to GCCGCGAC, the “PBM E-score” value rises from -0.0262 to 0.0926.

Compared with AATCATCG, GGGCGACA is higher in “PBM E-score” value: -0.05 for the first, 0.102 for the second.

First: CGGTCCAC
Second: AAGAGCCG
The “PBM E-score” value of the first is lower: -0.0157 for the first, 0.199 for the second.

Going from GGGCACGA to GCCCCGGC, the “PBM E-score” value rises from -0.0993 to 0.163.

Compared with AGCTACTA, GACTTATC is lower in “PBM E-score” value: -0.00606 for the first, -0.0395 for the second.

First: CACTTGAC
Second: AGACCCAC
The “PBM E-score” value of the first is lower: -0.156 for the first, 0.0644 for the second.

Going from ATTTTAGA to GGTCCAAA, the “PBM E-score” value falls from -0.0538 to -0.0766.

First: CAGACTTC
Second: GCAGACAA
The “PBM E-score” value of the first is lower: -0.196 for the first, 0.0426 for the second.

Compared with AGCACGCC, AGGAGGTA is lower in “PBM E-score” value: 0.0709 for the first, -0.18 for the second.

First: AGAGAGAT
Second: CCGCTTCA
The “PBM E-score” value of the first is lower: -5e-05 for the first, 0.0778 for the second.

Going from ATGGGTTA to GGCCCGAA, the “PBM E-score” value rises from 0.0293 to 0.184.

First: GATCGGGC
Second: CCACGAGC
The “PBM E-score” value of the first is higher: 0.142 for the first, 0.0663 for the second.

First: ACTTTTAA
Second: AGTTTCCC
The “PBM E-score” value of the first is lower: -0.117 for the first, 0.0499 for the second.

Compared with CGCGAAGA, AGATATGG is lower in “PBM E-score” value: 0.233 for the first, 0.0512 for the second.

First: AAAGCCAA
Second: CCTGTAAA
The “PBM E-score” value of the first is higher: -0.081 for the first, -0.33 for the second.

First: CCCTGAAA
Second: AGGAACGA
The “PBM E-score” value of the first is higher: -0.0909 for the first, -0.1 for the second.

Going from CCGACTGC to ACTCAGCT, the “PBM E-score” value falls from 0.158 to -0.101.

First: ATCTGCAA
Second: ACTCTCGC
The “PBM E-score” value of the first is lower: -0.209 for the first, -0.145 for the second.

Going from ACTGCGGA to ACCGCGCT, the “PBM E-score” value falls from 0.3 to 0.139.

Going from CTTGGTAA to CGGTTGGC, the “PBM E-score” value rises from -0.183 to 0.161.

Going from GGCAGAAC to GAATCGTC, the “PBM E-score” value falls from 0.123 to 0.0399.

Compared with ATATTACA, AATATAAA is higher in “PBM E-score” value: 0.102 for the first, 0.172 for the second.

Going from AGTCTAGC to GACATCCC, the “PBM E-score” value rises from -0.15 to 0.3.

First: ATCTTTGG
Second: GATCCTAA
The “PBM E-score” value of the first is higher: -0.102 for the first, -0.233 for the second.

Going from CCAGAGGG to CTCAACAA, the “PBM E-score” value rises from -0.0841 to 0.00216.

Going from ATTCGAGG to AACCATGG, the “PBM E-score” value rises from -0.213 to 0.146.

Compared with AGCCACGG, ATGGTAAT is lower in “PBM E-score” value: 0.16 for the first, -0.0621 for the second.

First: AGATCGTA
Second: CGTACCAG
The “PBM E-score” value of the first is lower: -0.304 for the first, -0.0819 for the second.

First: AGCCGTCA
Second: TTGGACAA
The “PBM E-score” value of the first is higher: 0.131 for the first, -0.0877 for the second.

Compared with ATGTACAT, GCGCTTGA is higher in “PBM E-score” value: -0.0148 for the first, 0.133 for the second.

Going from ACTGAAGG to AAACCTGA, the “PBM E-score” value rises from -0.0847 to -0.0373.

Going from ACGCACGC to CGTAGCCA, the “PBM E-score” value falls from 0.216 to -0.267.

Going from CAGTGCAG to CTAGGTGA, the “PBM E-score” value falls from -0.137 to -0.379.

Going from AAAGACTC to ATATTAGA, the “PBM E-score” value rises from -0.222 to -0.0652.

Compared with GTGTTAAA, CCATGCCG is higher in “PBM E-score” value: -0.19 for the first, 0.233 for the second.

Going from GGCAGGTA to CCAAGGTA, the “PBM E-score” value falls from 0.0293 to -0.119.

Compared with ACCGGCTA, GCTTGACC is lower in “PBM E-score” value: 0.0457 for the first, -0.0618 for the second.

Compared with GGAAGCGA, AAGGATAA is lower in “PBM E-score” value: 0.224 for the first, -0.235 for the second.

Going from AAAGGAGA to AGAAACGC, the “PBM E-score” value rises from -0.233 to -0.183.

First: ATGTCCGG
Second: GTCTTCCA
The “PBM E-score” value of the first is higher: 0.375 for the first, -0.258 for the second.

Compared with ACATAATG, ATAATTAC is higher in “PBM E-score” value: 0.0289 for the first, 0.0827 for the second.

Going from ACGATAAT to ATCCGCAG, the “PBM E-score” value rises from -0.171 to 0.316.

Compared with CGCTATAG, GCACGTAA is higher in “PBM E-score” value: -0.245 for the first, -0.144 for the second.

Going from ACAACTAC to GTAGTAAA, the “PBM E-score” value falls from 0.0153 to -0.0238.

Going from GTCTTCAC to GGGGCCTA, the “PBM E-score” value falls from -0.181 to -0.244.

Going from CTATCAAG to AGATATAC, the “PBM E-score” value rises from -0.175 to -0.0791.

Compared with AATGGAGG, ACAGGAGG is lower in “PBM E-score” value: 0.0106 for the first, -0.213 for the second.

Compared with GCGACGGA, ATAGAGCC is lower in “PBM E-score” value: 0.374 for the first, -0.0296 for the second.

First: AAGGACAG
Second: GTTAGGTA
The “PBM E-score” value of the first is higher: 0.0667 for the first, -0.0109 for the second.

First: ATATCGTA
Second: CTGCGAAC
The “PBM E-score” value of the first is higher: 0.00561 for the first, -0.337 for the second.

Compared with ACGACCAG, TGTATTAA is higher in “PBM E-score” value: -0.0994 for the first, -0.0783 for the second.

Going from ACCTCTAA to AGGCTGGG, the “PBM E-score” value falls from -0.154 to -0.288.

Compared with AATACATG, CGATATTC is higher in “PBM E-score” value: 0.0526 for the first, 0.238 for the second.

Compared with ACGCGCGC, AAACCCCA is lower in “PBM E-score” value: 0.238 for the first, -0.161 for the second.

First: CTATCAGA
Second: CTGTGGTC
The “PBM E-score” value of the first is lower: -0.12 for the first, -0.0567 for the second.

Compared with AGCATTAA, GCAAGAGA is lower in “PBM E-score” value: -0.0268 for the first, -0.0933 for the second.

First: GCTCGTAC
Second: GGCGGTTA
The “PBM E-score” value of the first is lower: -0.126 for the first, 0.0539 for the second.

Compared with ACCGATTC, GAATCATC is higher in “PBM E-score” value: -0.0118 for the first, 0.0501 for the second.

Compared with CATCTGAA, AGTCAGGC is higher in “PBM E-score” value: -0.0255 for the first, 0.0885 for the second.
